# Reference: the supplement of paper PMC8728848
# Some of the results follow.
# Tests used:
# Assay in all cases: glycan array binding signal (z-score within array); higher = stronger binding
# Conditions in all cases: glycan notation: IUPAC condensed, linker removed
# Fuc(a1-2)Gal = target: Fuc(a1-2)Gal
# Procedure, shortened: (§1)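 Negative Z-scores can be read as non-binding. The Z-score is calculated within each array and then averaged across arrays of one protein sequence at different concentrations or buffers and across linkers. Arrays, 3228 in all, were curated from the Consortium for Functional Glycomics database and kept only where the protein sequence was available.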
# Fuc(a1-2)Gal(b1-3)GalNAc = target: Fuc(a1-2)Gal(b1-3)GalNAc
# Procedure, shortened: as §1
# [1] = target: Fuc(a1-2)Gal(b1-3)GalNAc(b1-3)Gal
# Procedure, shortened: as §1
# [2] = target: Fuc(a1-2)Gal(b1-3)GalNAc(b1-3)Gal(a1-4)Gal(b1-4)Glc
# Procedure, shortened: as §1
# [3] = target: Fuc(a1-2)Gal(b1-3)GalNAc(b1-4)[Neu5Ac(a2-3)]Gal(b1-4)Glc
# Procedure, shortened: as §1
# Fuc(a1-2)Gal(b1-3)GlcNAc = target: Fuc(a1-2)Gal(b1-3)GlcNAc
# Procedure, shortened: as §1
# [4] = target: Fuc(a1-2)Gal(b1-3)GlcNAc(b1-3)Gal(b1-4)Glc
# Procedure, shortened: as §1
# [5] = target: Fuc(a1-2)Gal(b1-3)[Fuc(a1-4)]GlcNAc
# Procedure, shortened: as §1
# Fuc(a1-2)Gal(b1-4)Glc = target: Fuc(a1-2)Gal(b1-4)Glc
# Procedure, shortened: as §1
# Fuc(a1-2)Gal(b1-4)Glc6S = target: Fuc(a1-2)Gal(b1-4)Glc6S
# Procedure, shortened: as §1
# Fuc(a1-2)Gal(b1-4)GlcNAc = target: Fuc(a1-2)Gal(b1-4)GlcNAc
# Procedure, shortened: as §1
# [6] = target: Fuc(a1-2)Gal(b1-4)GlcNAc(b1-3)Gal(b1-4)GlcNAc
# Procedure, shortened: as §1
# [7] = target: Fuc(a1-2)Gal(b1-4)GlcNAc(b1-3)Gal(b1-4)GlcNAc(b1-3)Gal(b1-4)GlcNAc
# Procedure, shortened: as §1
# [8] = target: Fuc(a1-2)Gal(b1-4)GlcNAc6S
# Procedure, shortened: as §1
# [9] = target: Fuc(a1-2)Gal(b1-4)[Fuc(a1-3)]GlcNAc
# Procedure, shortened: as §1
# [10] = target: Fuc(a1-2)Gal(b1-4)[Fuc(a1-3)]GlcNAc(b1-3)Gal(b1-4)[Fuc(a1-3)]GlcNAc
# Procedure, shortened: as §1
# [11] = target: Fuc(a1-2)Gal(b1-4)[Fuc(a1-3)]GlcNAc(b1-3)Gal(b1-4)[Fuc(a1-3)]GlcNAc(b1-3)Gal(b1-4)[Fuc(a1-3)]GlcNAc
# Procedure, shortened: as §1
# Fuc(a1-2)Gal6S(b1-4)Glc = target: Fuc(a1-2)Gal6S(b1-4)Glc
# Procedure, shortened: as §1
# [12] = target: Fuc(a1-2)Gal6S(b1-4)Glc6S
# Procedure, shortened: as §1
# [13] = target: Fuc(a1-2)Gal6S(b1-4)GlcNAc
# Procedure, shortened: as §1
# Fuc(a1-2)[Gal(a1-3)]Gal = target: Fuc(a1-2)[Gal(a1-3)]Gal
# Procedure, shortened: as §1
# [14] = target: Fuc(a1-2)[Gal(a1-3)]Gal(b1-3)GlcNAc
# Procedure, shortened: as §1
# [15] = target: Fuc(a1-2)[Gal(a1-3)]Gal(b1-4)Glc
# Procedure, shortened: as §1
# [16] = target: Fuc(a1-2)[Gal(a1-3)]Gal(b1-4)GlcNAc
# Procedure, shortened: as §1
# [17] = target: Fuc(a1-2)[Gal(a1-3)]Gal(b1-4)[Fuc(a1-3)]GlcNAc
# Procedure, shortened: as §1
# [18] = target: Fuc(a1-2)[Gal(a1-4)]Gal(b1-4)GlcNAc
# Procedure, shortened: as §1
# [19] = target: Fuc(a1-2)[GalNAc(a1-3)]Gal
# Procedure, shortened: as §1
# [20] = target: Fuc(a1-2)[GalNAc(a1-3)]Gal(b1-3)GlcNAc
# Procedure, shortened: as §1
# [21] = target: Fuc(a1-2)[GalNAc(a1-3)]Gal(b1-4)Glc
# Procedure, shortened: as §1
# [22] = target: Fuc(a1-2)[GalNAc(a1-3)]Gal(b1-4)GlcNAc
# Procedure, shortened: as §1
binder,measurement,setting,value
"R410P1E11 (Tachypleus tridentatus), TAL2_TACTR (protein) MEKGTPPTHDSDNWMGRAKEIGNGGWDQFQFLFFDPNGYLYAVSNDKLYKASPPQSDTDNWIARATEIGSGGWSGFKFLFFHPNGYLYAVRGQRFYKALPPVSNQD",glycan array binding signal (z-score),Fuc(a1-2)Gal,0.815
same,glycan array binding signal (z-score),Fuc(a1-2)Gal(b1-3)GalNAc,-0.061
same,glycan array binding signal (z-score),[1],0.182
same,glycan array binding signal (z-score),[2],-0.563
same,glycan array binding signal (z-score),[3],-0.033
same,glycan array binding signal (z-score),Fuc(a1-2)Gal(b1-3)GlcNAc,0.333
same,glycan array binding signal (z-score),[4],0.087
same,glycan array binding signal (z-score),[5],-0.245
same,glycan array binding signal (z-score),Fuc(a1-2)Gal(b1-4)Glc,-0.285
same,glycan array binding signal (z-score),Fuc(a1-2)Gal(b1-4)Glc6S,-0.194
same,glycan array binding signal (z-score),Fuc(a1-2)Gal(b1-4)GlcNAc,-0.278
same,glycan array binding signal (z-score),[6],-0.164
same,glycan array binding signal (z-score),[7],-0.051
same,glycan array binding signal (z-score),[8],-0.199
same,glycan array binding signal (z-score),[9],-0.44
same,glycan array binding signal (z-score),[10],-0.171
same,glycan array binding signal (z-score),[11],-0.03
same,glycan array binding signal (z-score),Fuc(a1-2)Gal6S(b1-4)Glc,-0.503
same,glycan array binding signal (z-score),[12],0.201
same,glycan array binding signal (z-score),[13],-0.187
same,glycan array binding signal (z-score),Fuc(a1-2)[Gal(a1-3)]Gal,-1.08
same,glycan array binding signal (z-score),[14],-0.345
same,glycan array binding signal (z-score),[15],-0.282
same,glycan array binding signal (z-score),[16],0.385
same,glycan array binding signal (z-score),[17],0.709
same,glycan array binding signal (z-score),[18],0.356
same,glycan array binding signal (z-score),[19],0.381
same,glycan array binding signal (z-score),[20],-0.286
same,glycan array binding signal (z-score),[21],0.475
same,glycan array binding signal (z-score),[22],2.74
